# Data: the supplement of paper PMC8728848
# The list shows a part of the results.
# Legend:
# Test in all cases: glycan array binding signal (z-score within array); higher = stronger binding
# Settings in all cases: glycan notation: IUPAC condensed, linker removed
# Gal(a1-3)Gal(b1-4)GlcNAc = biological target: Gal(a1-3)Gal(b1-4)GlcNAc
# Procedure, shortened: (§1)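 The binding signal is a Z-score computed within each array and averaged over linkers. Arrays of the same protein sequence at different concentrations or buffers were also averaged together. Data originate from 3228 arrays in the Consortium for Functional Glycomics database, kept only where the protein sequence was available.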
# [1] = biological target: Gal(a1-3)Gal(b1-4)GlcNAc(b1-2)Man
# Procedure, shortened: as §1
# [2] = biological target: Gal(a1-3)Gal(b1-4)GlcNAc(b1-2)Man(a1-3)[Gal(a1-3)Gal(b1-4)GlcNAc(b1-2)Man(a1-6)]Man(b1-4)GlcNAc(b1-4)GlcNAc
# Procedure, shortened: as §1
# [3] = biological target: Gal(a1-3)Gal(b1-4)GlcNAc(b1-3)GalNAc
# Procedure, shortened: as §1
# [4] = biological target: Gal(a1-3)Gal(b1-4)GlcNAc(b1-6)GalNAc
# Procedure, shortened: as §1
# [5] = biological target: Gal(a1-3)Gal(b1-4)[Fuc(a1-3)]GlcNAc
# Procedure, shortened: as §1
# [6] = biological target: Gal(a1-3)Gal(b1-4)[Fuc(a1-3)]GlcNAc(b1-2)Man(a1-3)[Gal(a1-3)Gal(b1-4)[Fuc(a1-3)]GlcNAc(b1-2)Man(a1-6)]Man(b1-4)GlcNAc(b1-4)GlcNAc
# Procedure, shortened: as §1
# Gal(a1-3)GalNAc = biological target: Gal(a1-3)GalNAc
# Procedure, shortened: as §1
# [7] = biological target: Gal(a1-3)[Gal(a1-4)]Gal(b1-4)GlcNAc
# Procedure, shortened: as §1
# [8] = biological target: Gal(a1-4)Gal(b1-3)GlcNAc(b1-2)Man(a1-3)[Gal(a1-4)Gal(b1-3)GlcNAc(b1-2)Man(a1-6)]Man(b1-4)GlcNAc(b1-4)GlcNAc
# Procedure, shortened: as §1
# Gal(a1-4)Gal(b1-4)Glc = biological target: Gal(a1-4)Gal(b1-4)Glc
# Procedure, shortened: as §1
# Gal(a1-4)Gal(b1-4)GlcNAc = biological target: Gal(a1-4)Gal(b1-4)GlcNAc
# Procedure, shortened: as §1
# [9] = biological target: Gal(a1-4)Gal(b1-4)GlcNAc(b1-2)Man(a1-3)[Gal(a1-4)Gal(b1-4)GlcNAc(b1-2)Man(a1-6)]Man(b1-4)GlcNAc(b1-4)GlcNAc
# Procedure, shortened: as §1
# [10] = biological target: Gal(a1-4)Gal(b1-4)GlcNAc(b1-3)Gal(b1-4)Glc
# Procedure, shortened: as §1
# Gal(a1-4)GlcNAc = biological target: Gal(a1-4)GlcNAc
# Procedure, shortened: as §1
# Gal(a1-6)Glc = biological target: Gal(a1-6)Glc
# Procedure, shortened: as §1
# Gal(b1-2)Gal = biological target: Gal(b1-2)Gal
# Procedure, shortened: as §1
# Gal(b1-3)Gal = biological target: Gal(b1-3)Gal
# Procedure, shortened: as §1
# Gal(b1-3)Gal(b1-4)GlcNAc = biological target: Gal(b1-3)Gal(b1-4)GlcNAc
# Procedure, shortened: as §1
# Gal(b1-3)GalNAc = biological target: Gal(b1-3)GalNAc
# Procedure, shortened: as §1
# [11] = biological target: Gal(b1-3)GalNAc(a1-3)[Fuc(a1-2)]Gal(b1-4)Glc
# Procedure, shortened: as §1
# [12] = biological target: Gal(b1-3)GalNAc(a1-3)[Fuc(a1-2)]Gal(b1-4)GlcNAc
# Procedure, shortened: as §1
# Gal(b1-3)GalNAc(b1-3)Gal = biological target: Gal(b1-3)GalNAc(b1-3)Gal
# Procedure, shortened: as §1
# [13] = biological target: Gal(b1-3)GalNAc(b1-3)Gal(a1-4)Gal(b1-4)Glc
# Procedure, shortened: as §1
# [14] = biological target: Gal(b1-3)GalNAc(b1-4)Gal(b1-4)Glc
# Procedure, shortened: as §1
# [15] = biological target: Gal(b1-3)GalNAc(b1-4)[Neu5Ac(a2-3)]Gal(b1-4)Glc
# Procedure, shortened: as §1
# Gal(b1-3)GlcNAc = biological target: Gal(b1-3)GlcNAc
# Procedure, shortened: as §1
# [16] = biological target: Gal(b1-3)GlcNAc(a1-3)Gal(b1-4)GlcNAc
# Procedure, shortened: as §1
# [17] = biological target: Gal(b1-3)GlcNAc(a1-6)Gal(b1-4)GlcNAc
# Procedure, shortened: as §1
# Gal(b1-3)GlcNAc(b1-2)Man = biological target: Gal(b1-3)GlcNAc(b1-2)Man
# Procedure, shortened: as §1
# [18] = biological target: Gal(b1-3)GlcNAc(b1-2)Man(a1-3)[Gal(b1-3)GlcNAc(b1-2)Man(a1-6)]Man(b1-4)GlcNAc(b1-4)GlcNAc
# Procedure, shortened: as §1
# [19] = biological target: Gal(b1-3)GlcNAc(b1-2)Man(a1-3)[Gal(b1-3)GlcNAc(b1-2)Man(a1-6)]Man(b1-4)GlcNAc(b1-4)[Fuc(a1-6)]GlcNAc
# Procedure, shortened: as §1
# [20] = biological target: Gal(b1-3)GlcNAc(b1-2)Man(a1-3)[GlcNAc(b1-4)][Gal(b1-3)GlcNAc(b1-2)Man(a1-6)]Man(b1-4)GlcNAc(b1-4)GlcNAc
# Procedure, shortened: as §1
# [21] = biological target: Gal(b1-3)GlcNAc(b1-2)[Gal(b1-3)GlcNAc(b1-6)]Man(a1-6)[Gal(b1-3)GlcNAc(b1-2)Man(a1-3)]Man(b1-4)GlcNAc(b1-4)GlcNAc
# Procedure, shortened: as §1
# [22] = biological target: Gal(b1-3)GlcNAc(b1-3)Gal(b1-3)GlcNAc
# Procedure, shortened: as §1
# [23] = biological target: Gal(b1-3)GlcNAc(b1-3)Gal(b1-4)Glc
# Procedure, shortened: as §1
# [24] = biological target: Gal(b1-3)GlcNAc(b1-3)Gal(b1-4)GlcNAc
# Procedure, shortened: as §1
binder,measurement,setting,value
"AT1G73650(15) (Arabidopsis thaliana), F4HRY1 (protein) MGTVLDSHFLALTAIVTVIYQFIFFVITALFKFDQVTDFAGSTNFVILAVLTLVLKASWHFRQIVLTLLVVVWGLRLGIFLLMETRILQWGEDRRFDEQRGNIVRLIIFWTLQAVWVWTVSLPLTLVNASDGGGSLKPADVIGWTMETWVFGFLIEAAADQQKLSFKNSPENRGKWCDVGVWKYSRHPNYFGEMETLLWWGIFVAASPVLEGAEYLVIFGPLFLTLLLLFVSGIPLLEASADKKHGNSGAYRSYKKTTSPLILFPRGVYGNLPGWFKTVFLFEFPFYSRNLPQEGRLQNSKEKEVKDD",glycan array binding signal (z-score),Gal(a1-3)Gal(b1-4)GlcNAc,-0.242
same,glycan array binding signal (z-score),[1],-0.493
same,glycan array binding signal (z-score),[2],-0.128
same,glycan array binding signal (z-score),[3],-0.374
same,glycan array binding signal (z-score),[4],-0.542
same,glycan array binding signal (z-score),[5],-0.487
same,glycan array binding signal (z-score),[6],-0.086
same,glycan array binding signal (z-score),Gal(a1-3)GalNAc,0.849
same,glycan array binding signal (z-score),[7],3.43
same,glycan array binding signal (z-score),[8],-0.28
same,glycan array binding signal (z-score),Gal(a1-4)Gal(b1-4)Glc,0.464
same,glycan array binding signal (z-score),Gal(a1-4)Gal(b1-4)GlcNAc,0.585
same,glycan array binding signal (z-score),[9],-0.592
same,glycan array binding signal (z-score),[10],-0.482
same,glycan array binding signal (z-score),Gal(a1-4)GlcNAc,-0.576
same,glycan array binding signal (z-score),Gal(a1-6)Glc,-0.341
same,glycan array binding signal (z-score),Gal(b1-2)Gal,-0.609
same,glycan array binding signal (z-score),Gal(b1-3)Gal,-0.662
same,glycan array binding signal (z-score),Gal(b1-3)Gal(b1-4)GlcNAc,0.597
same,glycan array binding signal (z-score),Gal(b1-3)GalNAc,0.159
same,glycan array binding signal (z-score),[11],-0.729
same,glycan array binding signal (z-score),[12],0.517
same,glycan array binding signal (z-score),Gal(b1-3)GalNAc(b1-3)Gal,-0.616
same,glycan array binding signal (z-score),[13],0.351
same,glycan array binding signal (z-score),[14],3.21
same,glycan array binding signal (z-score),[15],0.118
same,glycan array binding signal (z-score),Gal(b1-3)GlcNAc,-0.32
same,glycan array binding signal (z-score),[16],-0.442
same,glycan array binding signal (z-score),[17],0.337
same,glycan array binding signal (z-score),Gal(b1-3)GlcNAc(b1-2)Man,-0.312
same,glycan array binding signal (z-score),[18],0.342
same,glycan array binding signal (z-score),[19],-0.568
same,glycan array binding signal (z-score),[20],-0.213
same,glycan array binding signal (z-score),[21],0.083
same,glycan array binding signal (z-score),[22],-0.598
same,glycan array binding signal (z-score),[23],2.3
same,glycan array binding signal (z-score),[24],-0.488
